Data as given in paper PMC4336329 (PLoS ONE, 2015).
Out of some 310,000 compounds screened, about 14,000 (4.5%) showed an effect of 50% or more. The effect is printed as a negative number. Some of the results follow.

molecular target: human ether-à-go-go-related gene (hERG) potassium channel (human, UniProt Q12809); test: primary screen, population patch clamp on CHO cells stably expressing hERG
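Further: peak tail current of the secondary pulse compared with the same well before compound.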

Sequence of human ether-à-go-go-related gene (hERG) potassium channel (Q12809 whole entry, looked up): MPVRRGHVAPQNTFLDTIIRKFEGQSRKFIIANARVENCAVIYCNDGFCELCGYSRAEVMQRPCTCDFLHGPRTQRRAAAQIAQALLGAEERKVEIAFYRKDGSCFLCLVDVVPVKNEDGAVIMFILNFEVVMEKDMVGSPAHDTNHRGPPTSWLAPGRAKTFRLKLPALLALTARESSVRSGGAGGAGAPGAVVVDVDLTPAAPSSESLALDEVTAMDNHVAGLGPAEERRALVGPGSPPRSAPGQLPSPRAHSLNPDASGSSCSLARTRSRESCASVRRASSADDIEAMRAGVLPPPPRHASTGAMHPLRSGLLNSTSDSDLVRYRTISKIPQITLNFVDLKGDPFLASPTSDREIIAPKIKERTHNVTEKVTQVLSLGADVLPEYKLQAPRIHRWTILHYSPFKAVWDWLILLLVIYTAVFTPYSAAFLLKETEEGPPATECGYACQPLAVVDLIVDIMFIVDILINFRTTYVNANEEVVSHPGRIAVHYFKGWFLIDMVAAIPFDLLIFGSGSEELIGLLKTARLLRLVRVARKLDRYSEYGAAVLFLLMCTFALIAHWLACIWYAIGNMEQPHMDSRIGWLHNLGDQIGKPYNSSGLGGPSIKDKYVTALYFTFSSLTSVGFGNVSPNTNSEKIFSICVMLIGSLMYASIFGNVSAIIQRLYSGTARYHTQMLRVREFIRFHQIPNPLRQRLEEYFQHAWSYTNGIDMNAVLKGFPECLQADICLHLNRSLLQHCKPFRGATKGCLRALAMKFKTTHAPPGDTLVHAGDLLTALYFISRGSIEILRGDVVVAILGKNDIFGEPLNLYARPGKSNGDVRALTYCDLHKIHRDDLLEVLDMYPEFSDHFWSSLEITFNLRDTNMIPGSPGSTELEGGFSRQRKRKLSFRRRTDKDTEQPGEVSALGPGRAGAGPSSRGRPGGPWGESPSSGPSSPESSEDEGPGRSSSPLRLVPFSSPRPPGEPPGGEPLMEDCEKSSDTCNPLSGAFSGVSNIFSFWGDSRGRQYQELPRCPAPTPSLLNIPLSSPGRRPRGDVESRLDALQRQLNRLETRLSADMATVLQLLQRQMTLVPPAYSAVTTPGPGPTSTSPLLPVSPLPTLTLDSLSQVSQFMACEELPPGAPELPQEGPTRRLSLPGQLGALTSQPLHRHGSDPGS

Compound | hERG current change (%, negative = inhibition) at 10uM [%]
COC(=O)CCC(=O)c1oc2ccc(OC)cc2c1N | 4.41
Cc1ccc(N(NC(=O)C(O)(c2ccccc2)c2ccccc2)C(=O)CCl)cc1 | 8.33
CN(C)c1cccc(C(=O)NCc2ccccc2)c1 | -0.98
Cc1c(C(=O)Nc2ccccc2)c2ccc(C(F)(F)F)cc2n1O | 4.91
COCC(C)NS(=O)(=O)c1ccc(NC(=O)c2ccccn2)cc1 (stereo not drawn) | 4.06
Cc1ccc(NC(=O)Nc2cc(C)on2)cc1 | 12.8
COCCNC(=O)c1ccccc1NC(=O)c1ccc(OC)c(OC)c1 | -18.9
Cc1ccc(S(=O)(=O)/N=C(/Nc2cccc(C(=O)O)c2)c2ccccc2)cc1 | 22.2
CCOC(=O)N1CCN(c2nc(-c3ccc(OC)cc3)no2)CC1 | 5.03
COc1cc2c(C(=O)N3CCN(C)CC3)c(CSc3ccccc3)n(C)c2cc1Br | -74
Cc1ccc(S(=O)(=O)Nc2ccc(NC(=O)c3ccc(F)cc3)cc2)cc1 | -42.7
COc1ccc([C@H]2CC(=O)C=C(/C=C/c3ccc(Cl)cc3)C2)cc1 | 12.8
O=C(c1ccco1)N1CCN(C(=O)c2ccccc2OCc2ccc(Cl)cc2)CC1 | -75.9
CCCCN(C)C(=O)c1coc(=O)c2ccccc12 | 7.25
Cc1ccc(F)cc1NC(=O)N1CCN(C2c3ccccc3-c3ccccc32)CC1 | 11
CCOC(=O)C1CCN(CC(=O)c2ccc(O)c(C)c2O)CC1 | 7.78
COC(=O)c1ccccc1NC(=O)CN(C)S(=O)(=O)c1ccc(OC)c(C)c1 | -11.1
COc1ccc(Cn2c(CCC(=O)Nc3ccccc3OC)nc3cccnc32)cc1 | -3.79
O=C1c2ccccc2C(=O)N1CCCn1ccnc1 | 17.1
CC1CCC(NC(=O)C(NS(=O)(=O)c2cccc3nsnc23)C(C)C)CC1 (stereo not drawn) | 2.06
Cc1cc(N)ccc1-n1nc2ccccc2n1 | -0.0513
CN1C(C(=O)NCc2ccco2)CC2Cn3c(nc4ccccc43)C21 (stereo not drawn) | 10.3
O=C(CSc1ncccn1)NNC(=O)c1ccccc1 | -4.48

Compound | hERG current change (%, negative = inhibition) at 10uM [%]
CCCCOC(=O)c1ccc(S(N)(=O)=O)o1 | -1.6
CN(Cc1cc([N+](=O)[O-])c2cccnc2c1O)C1CCCCC1 | 19.3
COc1ccc(CNCC(O)(c2ccc(Cl)cc2)c2ccc(Cl)cc2)cc1OC | -30.9
O=C(c1cc(C2CC2)nn1-c1ccccc1)N1CCN(S(=O)(=O)c2c(F)cccc2F)CC1 | -9.33
O=C(Nc1ccc(F)cc1)NC1CCN(Cc2nnnn2Cc2ccco2)CC1 | -42.6
CCOc1ccc(-c2noc(CCCC(N)=O)n2)cc1OC | 3.53
CCOc1ccc(N2C(=O)/C(=C/c3cc(OC)c(OC)c(OC)c3)N(CC(=O)OC)C2=S)cc1 | 2.58
CCOc1cc(C#N)c(NC(=O)c2cccnc2Cl)cc1OCC | 3.49
O=C(Nc1ccccc1Cl)Oc1ccc2ccccc2c1 | 8
O=S(=O)(c1ccc(F)cc1)N1CCCC(CO)C1 (stereo not drawn) | -0.739
CCn1c(SCC(=O)Nc2ccccc2)nc2ccccc2c1=O | 12.8
C=CCSc1nnc(Cc2cc(=O)[nH]c(=O)[nH]2)n1-c1cc(C)ccc1C | 6.26
CC(C)NC(=O)CN1C(=O)C(=O)c2ccccc21 | -9.78
Fc1ccc(OCCCn2ccnc2)cc1 | 26.7
CN(C)c1ccc(NC(=O)c2ccc3c(c2)nnn3C)cc1 | 17.1
CCN1CCCC1CNC(=O)c1cc2c(=O)n(C)c3ccccc3c2n1C (stereo not drawn) | -18.5
CCCNc1c(NS(=O)(=O)c2ccc(C3CCCCC3)cc2)c(=O)oc2ccccc12 | 21.9
CC(=O)c1c(COC(=O)c2ccncc2)nc2ccccc2[n+]1[O-] | 0.834
Cc1nnc(SCC(=O)Nc2ncc(S(=O)(=O)c3ccc([N+](=O)[O-])cc3)s2)s1 | 0.397
COc1ccc(C)cc1NC(=O)CSc1nc2ccccc2nc1N1CC(C)OC(C)C1 (stereo not drawn) | 23.9
CCN(CC)C(=O)Cn1cc(S(=O)(=O)CC(=O)NC2CCCCC2)c2ccccc21 | -4.65
COC(=O)CNC(=O)c1ccc(NS(=O)(=O)c2cc([N+](=O)[O-])ccc2Cl)cc1 | 8.77
